How the values were obtained:
[1] = biological target: T1, poly-histidine tagged HPTP-β extracellular domain (ECD) 1/2 (human, UniProt P23467 23-730, limits assumed); assay: Biacore SPR, scouting; His-tagged HPTP-β 1/2 ECD captured by anti-His antibody
T1 construct: domain: extracellular domain (ECD) 1/2; Captured on the Biacore chip through goat anti-His antibody; also called His-tagged ligand HPTP-β 1/2 ECD; not shown: poly-histidine tag
T1 sequence (looked up): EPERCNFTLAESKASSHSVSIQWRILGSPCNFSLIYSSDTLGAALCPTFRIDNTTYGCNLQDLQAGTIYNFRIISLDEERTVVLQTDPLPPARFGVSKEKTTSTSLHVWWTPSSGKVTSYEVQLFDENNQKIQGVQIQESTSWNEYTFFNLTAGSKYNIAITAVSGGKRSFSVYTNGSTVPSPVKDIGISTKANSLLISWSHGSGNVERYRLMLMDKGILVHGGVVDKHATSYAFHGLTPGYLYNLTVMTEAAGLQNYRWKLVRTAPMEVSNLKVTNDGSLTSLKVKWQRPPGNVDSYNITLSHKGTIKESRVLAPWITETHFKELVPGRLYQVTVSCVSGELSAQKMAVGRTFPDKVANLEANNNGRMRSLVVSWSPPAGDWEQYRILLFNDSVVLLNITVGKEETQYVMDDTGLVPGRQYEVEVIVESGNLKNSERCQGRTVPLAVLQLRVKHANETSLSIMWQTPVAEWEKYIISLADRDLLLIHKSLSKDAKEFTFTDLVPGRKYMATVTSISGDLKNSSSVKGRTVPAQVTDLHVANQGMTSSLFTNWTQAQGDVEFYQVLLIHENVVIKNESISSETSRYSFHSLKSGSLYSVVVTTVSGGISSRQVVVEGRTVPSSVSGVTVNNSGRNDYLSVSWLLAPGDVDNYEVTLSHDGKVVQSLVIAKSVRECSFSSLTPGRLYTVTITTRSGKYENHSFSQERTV
Source text: For analysis of binding of antibodies to HPTP-β, poly-histidine tagged HPTP-β extracellular domain (ECD) 1/2 was immobilized on a chip surface via anti-His antibodies. Goat anti-His antibody was first immobilized on the surface of the chip by direct immobilization using EDC/NHS (N-ethyl-N′-(3-dimethyl aminopropyl carbodiimide)/N-hydroxy succinamide) coupling chemistry on flow cell 2 of the CM5 (Carboxymethylated dextran coated) chip. Unoccupied sites were blocked with 1M ethanolamine. The His-tagged ligand HPTP-β 1/2 ECD was captured at a response unit (RU) of 50. The analyte (antibody) was flowed over the chip at a single analyte concentration at a time. The binding of analyte to the ligand was monitored in real time to obtain on (kₐ) and off (kd) rates. The equilibrium constant (KD) was calculated from the observed kₐ and kd.
(§1) Chi square analysis was carried out between the actual sensorgram and the sensorgram generated from the BIAnalysis software to confirm the accuracy of the analysis; values of 1-2 were considered accurate and below 1 highly accurate.

VEGF [2] = biological target: T2, VEGF (UniProt P15692-4 27-191, limits assumed); assay: Biacore SPR, full kinetics at 0-10 nM analyte; binder immobilised on CM5 chip, VEGF as analyte
T2 construct: also called vascular endothelial growth factor
T2 sequence (looked up): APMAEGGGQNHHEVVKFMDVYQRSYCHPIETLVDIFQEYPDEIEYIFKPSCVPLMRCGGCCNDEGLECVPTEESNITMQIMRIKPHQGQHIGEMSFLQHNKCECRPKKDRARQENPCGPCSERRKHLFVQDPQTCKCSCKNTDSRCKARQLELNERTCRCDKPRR
Experimental: (§2) For analysis of binding of the antibodies to VEGF, the antibodies were immobilized on the surface of the chip by direct immobilization using EDC/NHS coupling chemistry on flow cell 2 of the CM5 chip. Unoccupied sites were blocked with 1M ethanolamine. The analyte (VEGF) was flowed over the chip at a single analyte concentration at a time. The binding of analyte to the ligand was monitored in real time to obtain on (kₐ) and off (kd) rates. The equilibrium constant (KD) was calculated from the observed kₐ and kd.
Chi square analysis was carried out between the actual sensorgram and the sensorgram generated from the BNAnalysis software to confirm the accuracy of the analysis; values of 1-2 were considered accurate and below 1 highly accurate.

VEGF [3] = biological target: T2, VEGF; assay: Biacore SPR, scouting at 10 nM analyte; binder immobilised on CM5 chip, VEGF as analyte
Experimental: The assay buffer contained 10 mM HEPES buffer (pH 7.4), 150 mM NaCl, 3 mM EDTA, and 0.05% P20 (polyoxyethylenesorbitan). […] The conjugation buffer contained 10 mM sodium acetate buffer (pH 5). A flow rate of 5 μL/minute was used for capturing ligand. A flow rate of 30 μL/minute was used for kinetic analysis.
as §2, §1

binding result [1]: no binding (tested: 10 nM of analyte) | Kd (VEGF [2]): 0.0375 nM | Kd (VEGF [3]): 0.16 nM
B1: Aflibercept (Fc fusion)
chain: SDTGRPFVEMYSEIPEIIHMTEGRELVIPCRVTSPNITVTLKKFPLDTLIPDGKRIIWDSRKGFIISNATYKEIGLLTCEATVNGHLYKTNYLTHRQTNTIIDVVLSPSHGIELSVGEKLVLNCTARTELNVGIDFNWEYPSSKHQHKKLVNRDLKTQSGSEMKKFLSTLTIDGVTRSDQGLYTCAASSGLMTKKNSTFVRVHEK[human IgG1 Fc not given here]
notes: Control in the Biacore assays; also called AFL1; Eylea

Source: US20240174740A1 (EYEPOINT PHARMACEUTICALS, published 2024)
